# Laboratory results: the supplement of paper PMC8728848
# The list shows a part of the results.
# B1: rCnSL-proA (Clitocybe nebularis) (protein)
# chain: AAFFSLVVLLALLPFGIHASALPSTELTPRVNPNLPGPNDVFVGFRGTNNIVGAIYEKDGIKDTPLNNGADAEMGPGSYITDGLFTARIFASGSAGNNPGTTATVCKIYASGVQWRGAPKGYIPVAYFGNGPTAEQRRQTYLRTLGLPGTAIRFGNLNTNPGQGPTAPRQMVVPPGPLRSLLKASCFPAADTRLPQTLHYFEKRVDWNIITAADSQTWGH
# Assays:
# Assay in all cases: glycan array binding signal (z-score within array); higher = stronger binding
# Settings in all cases: glycan notation: IUPAC condensed, linker removed
# [1] = target: Gal(b1-4)GlcNAc(b1-2)[Gal(b1-4)GlcNAc(b1-6)]Man(a1-6)[GlcNAc(b1-4)][Gal(b1-4)GlcNAc(b1-2)Man(a1-3)]Man(b1-4)GlcNAc(b1-4)GlcNAc
# How it was run: (§1)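 Columns mapping to the same glycan were averaged after glycan names were converted to IUPAC-condensed notation. The data come from 3228 arrays in the Consortium for Functional Glycomics database, limited to those with an available protein sequence. Binding is reported as a within-array Z-score averaged across arrays of one protein sequence and across linkers.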
# [2] = target: Gal(b1-4)GlcNAc(b1-2)[Gal(b1-4)GlcNAc(b1-6)]Man(a1-6)[GlcNAc(b1-4)][Gal(b1-4)GlcNAc(b1-2)[Gal(b1-4)GlcNAc(b1-4)]Man(a1-3)]Man(b1-4)GlcNAc(b1-4)[Fuc(a1-6)]GlcNAc
# How it was run: as §1
# [3] = target: Gal(b1-4)GlcNAc(b1-3)Gal(b1-3)GalNAc
# How it was run: as §1
# [4] = target: Gal(b1-4)GlcNAc(b1-3)Gal(b1-3)GlcNAc
# How it was run: as §1
# [5] = target: Gal(b1-4)GlcNAc(b1-3)Gal(b1-4)Glc
# How it was run: as §1
# [6] = target: Gal(b1-4)GlcNAc(b1-3)Gal(b1-4)GlcNAc
# How it was run: as §1
# [7] = target: Gal(b1-4)GlcNAc(b1-3)Gal(b1-4)GlcNAc(b1-2)Man(a1-3)[Gal(b1-4)GlcNAc(b1-3)Gal(b1-4)GlcNAc(b1-2)Man(a1-6)]Man(b1-4)GlcNAc(b1-4)GlcNAc
# How it was run: as §1
# [8] = target: Gal(b1-4)GlcNAc(b1-3)Gal(b1-4)GlcNAc(b1-2)Man(a1-3)[Gal(b1-4)GlcNAc(b1-3)Gal(b1-4)GlcNAc(b1-2)Man(a1-6)]Man(b1-4)GlcNAc(b1-4)[Fuc(a1-6)]GlcNAc
# How it was run: as §1
# [9] = target: Gal(b1-4)GlcNAc(b1-3)Gal(b1-4)GlcNAc(b1-2)[Gal(b1-4)GlcNAc(b1-3)Gal(b1-4)GlcNAc(b1-6)]Man(a1-6)[Gal(b1-4)GlcNAc(b1-3)Gal(b1-4)GlcNAc(b1-2)Man(a1-3)]Man(b1-4)GlcNAc(b1-4)GlcNAc
# How it was run: as §1
# [10] = target: Gal(b1-4)GlcNAc(b1-3)Gal(b1-4)GlcNAc(b1-2)[Gal(b1-4)GlcNAc(b1-3)Gal(b1-4)GlcNAc(b1-6)]Man(a1-6)[Gal(b1-4)GlcNAc(b1-3)Gal(b1-4)GlcNAc(b1-2)Man(a1-3)]Man(b1-4)GlcNAc(b1-4)[Fuc(a1-6)]GlcNAc
# How it was run: as §1
# [11] = target: Gal(b1-4)GlcNAc(b1-3)Gal(b1-4)GlcNAc(b1-3)Gal(b1-4)GlcNAc
# How it was run: as §1
# [12] = target: Gal(b1-4)GlcNAc(b1-3)Gal(b1-4)GlcNAc(b1-3)Gal(b1-4)GlcNAc(b1-2)Man(a1-3)[Gal(b1-4)GlcNAc(b1-3)Gal(b1-4)GlcNAc(b1-3)Gal(b1-4)GlcNAc(b1-2)Man(a1-6)]Man(b1-4)GlcNAc(b1-4)GlcNAc
# How it was run: as §1
# [13] = target: Gal(b1-4)GlcNAc(b1-3)Gal(b1-4)GlcNAc(b1-3)Gal(b1-4)GlcNAc(b1-2)Man(a1-3)[Gal(b1-4)GlcNAc(b1-3)Gal(b1-4)GlcNAc(b1-3)Gal(b1-4)GlcNAc(b1-2)Man(a1-6)]Man(b1-4)GlcNAc(b1-4)[Fuc(a1-6)]GlcNAc
# How it was run: as §1
# [14] = target: Gal(b1-4)GlcNAc(b1-3)Gal(b1-4)GlcNAc(b1-3)Gal(b1-4)GlcNAc(b1-2)[Gal(b1-4)GlcNAc(b1-3)Gal(b1-4)GlcNAc(b1-3)Gal(b1-4)GlcNAc(b1-6)]Man(a1-6)[Gal(b1-4)GlcNAc(b1-3)Gal(b1-4)GlcNAc(b1-3)Gal(b1-4)GlcNAc(b1-2)Man(a1-3)]Man(b1-4)GlcNAc(b1-4)[Fuc(a1-6)]GlcNAc
# How it was run: as §1
# [15] = target: Gal(b1-4)GlcNAc(b1-3)Gal(b1-4)GlcNAc(b1-3)Gal(b1-4)GlcNAc(b1-3)Gal(b1-4)GlcNAc(b1-2)Man(a1-3)[Gal(b1-4)GlcNAc(b1-3)Gal(b1-4)GlcNAc(b1-3)Gal(b1-4)GlcNAc(b1-3)Gal(b1-4)GlcNAc(b1-2)Man(a1-6)]Man(b1-4)GlcNAc(b1-4)GlcNAc
# How it was run: as §1
# [16] = target: Gal(b1-4)GlcNAc(b1-3)Gal(b1-4)GlcNAc(b1-3)Gal(b1-4)GlcNAc(b1-3)Gal(b1-4)GlcNAc(b1-2)Man(a1-3)[Gal(b1-4)GlcNAc(b1-3)Gal(b1-4)GlcNAc(b1-3)Gal(b1-4)GlcNAc(b1-3)Gal(b1-4)GlcNAc(b1-2)Man(a1-6)]Man(b1-4)GlcNAc(b1-4)[Fuc(a1-6)]GlcNAc
# How it was run: as §1
# [17] = target: Gal(b1-4)GlcNAc(b1-3)Gal(b1-4)GlcNAc(b1-3)Gal(b1-4)GlcNAc(b1-3)Gal(b1-4)GlcNAc(b1-2)[Gal(b1-4)GlcNAc(b1-3)Gal(b1-4)GlcNAc(b1-3)Gal(b1-4)GlcNAc(b1-3)Gal(b1-4)GlcNAc(b1-6)]Man(a1-6)[Gal(b1-4)GlcNAc(b1-3)Gal(b1-4)GlcNAc(b1-3)Gal(b1-4)GlcNAc(b1-3)Gal(b1-4)GlcNAc(b1-2)Man(a1-3)]Man(b1-4)GlcNAc(b1-4)[Fuc(a1-6)]GlcNAc
# How it was run: as §1
# [18] = target: Gal(b1-4)GlcNAc(b1-3)Gal(b1-4)GlcNAc(b1-3)Gal(b1-4)GlcNAc(b1-3)Gal(b1-4)GlcNAc(b1-3)Gal(b1-4)GlcNAc(b1-2)Man(a1-3)[Gal(b1-4)GlcNAc(b1-3)Gal(b1-4)GlcNAc(b1-3)Gal(b1-4)GlcNAc(b1-3)Gal(b1-4)GlcNAc(b1-3)Gal(b1-4)GlcNAc(b1-2)Man(a1-6)]Man(b1-4)GlcNAc(b1-4)GlcNAc
# How it was run: as §1
# [19] = target: Gal(b1-4)GlcNAc(b1-3)Gal(b1-4)GlcNAc(b1-3)Gal(b1-4)GlcNAc(b1-3)Gal(b1-4)GlcNAc(b1-3)Gal(b1-4)GlcNAc(b1-2)Man(a1-3)[Gal(b1-4)GlcNAc(b1-3)Gal(b1-4)GlcNAc(b1-3)Gal(b1-4)GlcNAc(b1-3)Gal(b1-4)GlcNAc(b1-3)Gal(b1-4)GlcNAc(b1-2)Man(a1-6)]Man(b1-4)GlcNAc(b1-4)[Fuc(a1-6)]GlcNAc
# How it was run: as §1
# [20] = target: Gal(b1-4)GlcNAc(b1-3)Gal(b1-4)GlcNAc(b1-3)Gal(b1-4)GlcNAc(b1-3)Gal(b1-4)GlcNAc(b1-3)Gal(b1-4)GlcNAc(b1-2)[Gal(b1-4)GlcNAc(b1-3)Gal(b1-4)GlcNAc(b1-3)Gal(b1-4)GlcNAc(b1-3)Gal(b1-4)GlcNAc(b1-3)Gal(b1-4)GlcNAc(b1-6)]Man(a1-6)[Gal(b1-4)GlcNAc(b1-3)Gal(b1-4)GlcNAc(b1-3)Gal(b1-4)GlcNAc(b1-3)Gal(b1-4)GlcNAc(b1-3)Gal(b1-4)GlcNAc(b1-2)Man(a1-3)]Man(b1-4)GlcNAc(b1-4)[Fuc(a1-6)]GlcNAc
# How it was run: as §1
# [21] = target: Gal(b1-4)GlcNAc(b1-3)Gal(b1-4)GlcNAc(b1-3)Gal(b1-4)GlcNAc(b1-3)Gal(b1-4)GlcNAc(b1-3)Gal(b1-4)GlcNAc(b1-3)Gal(b1-4)GlcNAc(b1-2)Man(a1-3)[Gal(b1-4)GlcNAc(b1-3)Gal(b1-4)GlcNAc(b1-3)Gal(b1-4)GlcNAc(b1-3)Gal(b1-4)GlcNAc(b1-3)Gal(b1-4)GlcNAc(b1-3)Gal(b1-4)GlcNAc(b1-2)Man(a1-6)]Man(b1-4)GlcNAc(b1-4)GlcNAc
# How it was run: as §1
# [22] = target: Gal(b1-4)GlcNAc(b1-3)Gal(b1-4)GlcNAc(b1-3)GalNAc
# How it was run: as §1
# [23] = target: Gal(b1-4)GlcNAc(b1-3)Gal(b1-4)GlcNAc(b1-3)[Gal(b1-4)GlcNAc(b1-3)Gal(b1-4)GlcNAc(b1-6)]GalNAc
# How it was run: as §1
binder,measurement,setting,value
B1,glycan array binding signal (z-score),[1],-0.375
same,glycan array binding signal (z-score),[2],0.986
same,glycan array binding signal (z-score),[3],-0.209
same,glycan array binding signal (z-score),[4],-0.503
same,glycan array binding signal (z-score),[5],0.012
same,glycan array binding signal (z-score),[6],-0.336
same,glycan array binding signal (z-score),[7],5.99
same,glycan array binding signal (z-score),[8],1.32
same,glycan array binding signal (z-score),[9],1.27
same,glycan array binding signal (z-score),[10],2.71
same,glycan array binding signal (z-score),[11],0.529
same,glycan array binding signal (z-score),[12],4.45
same,glycan array binding signal (z-score),[13],1.3
same,glycan array binding signal (z-score),[14],4.11
same,glycan array binding signal (z-score),[15],2.14
same,glycan array binding signal (z-score),[16],1.66
same,glycan array binding signal (z-score),[17],4.64
same,glycan array binding signal (z-score),[18],0.77
same,glycan array binding signal (z-score),[19],0.434
same,glycan array binding signal (z-score),[20],3.94
same,glycan array binding signal (z-score),[21],2.33
same,glycan array binding signal (z-score),[22],1.57
same,glycan array binding signal (z-score),[23],2.65
